In PMC5111114:
No constants are given. Whether binding was seen depends on the method and setting. Binding seen in cells or lysates may run through a third protein. Some entries that bind do so weakly or less than the wild type.

Sequences of proteins named here, by UniProt entry; tags and fusion partners are left off. A change or cut given only in a name is not applied to a line headed by its entry.
UniProt P12956: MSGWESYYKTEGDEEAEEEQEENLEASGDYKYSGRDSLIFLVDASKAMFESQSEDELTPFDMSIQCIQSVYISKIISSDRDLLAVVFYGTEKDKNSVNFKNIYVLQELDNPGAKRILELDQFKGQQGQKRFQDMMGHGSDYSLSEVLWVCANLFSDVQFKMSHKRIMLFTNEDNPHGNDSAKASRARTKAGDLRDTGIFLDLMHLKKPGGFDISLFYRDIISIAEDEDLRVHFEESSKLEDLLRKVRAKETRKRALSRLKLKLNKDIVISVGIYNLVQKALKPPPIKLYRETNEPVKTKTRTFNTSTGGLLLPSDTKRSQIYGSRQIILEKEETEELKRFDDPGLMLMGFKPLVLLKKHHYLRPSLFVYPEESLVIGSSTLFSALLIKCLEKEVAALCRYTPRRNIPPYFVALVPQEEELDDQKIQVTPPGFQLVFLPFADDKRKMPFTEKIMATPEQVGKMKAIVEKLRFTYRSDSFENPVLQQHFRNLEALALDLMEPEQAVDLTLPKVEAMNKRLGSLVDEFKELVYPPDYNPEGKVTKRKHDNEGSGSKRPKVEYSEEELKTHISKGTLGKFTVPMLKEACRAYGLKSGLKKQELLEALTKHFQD
UniProt O70126: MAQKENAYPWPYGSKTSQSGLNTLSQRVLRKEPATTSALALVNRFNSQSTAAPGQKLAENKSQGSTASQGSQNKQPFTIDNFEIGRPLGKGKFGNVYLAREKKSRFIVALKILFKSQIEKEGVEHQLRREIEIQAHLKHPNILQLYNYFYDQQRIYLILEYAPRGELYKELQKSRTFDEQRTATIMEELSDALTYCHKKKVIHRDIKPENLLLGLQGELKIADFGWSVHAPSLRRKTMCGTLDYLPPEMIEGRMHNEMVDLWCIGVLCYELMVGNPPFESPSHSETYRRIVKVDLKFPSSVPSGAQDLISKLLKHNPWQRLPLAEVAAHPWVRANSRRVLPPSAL
UniProt Q96GD4: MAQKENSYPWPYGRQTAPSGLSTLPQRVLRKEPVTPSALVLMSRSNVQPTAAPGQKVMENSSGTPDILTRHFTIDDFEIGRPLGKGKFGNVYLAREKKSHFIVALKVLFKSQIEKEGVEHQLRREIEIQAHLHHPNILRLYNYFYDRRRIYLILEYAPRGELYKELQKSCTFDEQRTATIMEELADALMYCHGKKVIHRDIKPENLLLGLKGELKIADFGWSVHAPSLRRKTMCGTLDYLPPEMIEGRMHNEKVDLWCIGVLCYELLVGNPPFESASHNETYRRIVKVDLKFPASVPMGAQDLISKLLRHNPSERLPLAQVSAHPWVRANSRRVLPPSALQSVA

Assays:
[1] = biological target: Ku70 S155A expressed in Ku70-/- MEFs (UniProt P12956); experiment: proximity ligation; in situ PLA (Duolink) in fixed, untreated MEFs with antibodies to Ku70 and Aurora B; signal relative to Ku70 KO cells
[2] = biological target: Ku70 S155D (full length) expressed in Ku70-/- MEFs (UniProt P12956); experiment: as above
[3] = biological target: Ku70 WT re-expressed in Ku70-/- MEFs (UniProt P12956); experiment: co-IP; cells (MEFs, Hela) treated with IR (40 Gy), extracts prepared after 30 min; immunoprecipitation with a Ku70 antibody; western blot for Ku70 and Aurora B
[4] = biological target: Ku70 S155A expressed in Ku70-/- MEFs (UniProt P12956); experiment: proximity ligation; in situ PLA (Duolink) in MEFs treated with 10 Gy of IR and fixed after 30 min, antibodies to Ku70 and Aurora B; signal relative to Ku70 KO cells
[5] = biological target: Ku70 WT re-expressed in Ku70-/- MEFs (UniProt P12956); experiment: as above
[6] = biological target: Ku70 S155D (full length) expressed in Ku70-/- MEFs (UniProt P12956); experiment: co-IP; cells not irradiated (MEFs, Hela); extracts adjusted to 0.15% NP-40 and 100 mM KCl, 4 °C, Ku70 antibody (N3H10), Protein G magnetic beads; western blot for Ku70 and Aurora B
[7] = biological target: Ku70 WT re-expressed in Ku70-/- MEFs (UniProt P12956); experiment: as above
[8] = biological target: biotin-conjugated Ku70 S155D peptide (loop region surrounding S155, aa 145 to 163) (UniProt P12956); experiment: pull-down; biotin-streptavidin pull-down with biotin-conjugated Ku70 S155A or S155D peptides and untreated WT Ku70 MEF extracts; western blot for Aurora B; only the target purified
[9] = biological target: Ku70 WT re-expressed in Ku70-/- MEFs (UniProt P12956); experiment: co-IP; cells not irradiated (MEFs, Hela); extracts adjusted to 0.15% NP-40 and 100 mM KCl, 4 °C, Ku70 antibody (N3H10), Protein G magnetic beads; western blot for Ku70 and Aurora B; remark: listed apart in the source
[10] = biological target: Ku70 WT re-expressed in Ku70-/- MEFs (UniProt P12956); experiment: condition: only cells not irradiated (no DNA damage); proximity ligation; in situ PLA (Duolink) in fixed, untreated MEFs with antibodies to Ku70 and Aurora B; signal relative to Ku70 KO cells
[11] = biological target: Ku70 (endogenous, Hela cells) (human (endogenous in Hela)) (UniProt P12956); experiment: co-IP; cells (MEFs, Hela) treated with IR (40 Gy), extracts prepared after 30 min; immunoprecipitation with a Ku70 antibody; western blot for Ku70 and Aurora B
[12] = biological target: Ku70 (endogenous, Hela cells) (human (endogenous in Hela)) (UniProt P12956); experiment: co-IP; cells not irradiated (MEFs, Hela); extracts adjusted to 0.15% NP-40 and 100 mM KCl, 4 °C, Ku70 antibody (N3H10), Protein G magnetic beads; western blot for Ku70 and Aurora B

binding [1]	binding [2]	binding [3]	binding [4]	binding [5]	binding [6]	binding [7]	binding [8]	binding [11]	Substance	binding [9]	binding [10]	binding [12]
no binding	binds	binds	no binding	binds	binds	binds weakly	binds	–	Aurora B (endogenous, mouse embryonic fibroblasts) (from UniProt O70126 1-345) (enzyme)	no binding (condition: cells not irradiated (no IR))	no binding	–
–	–	–	–	–	–	–	–	binds	Aurora B (endogenous, Hela cells) (from UniProt Q96GD4 1-344) (enzyme)	–	–	no binding (condition: cells not irradiated (no IR))
